The source of these data is PMC4336329 (PLoS ONE, 2015).

Out of some 310,000 compounds screened, about 14,000 (4.5%) showed an effect of 50% or more. The effect is printed as a negative number. The list shows a part of the results.
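Also: peak tail current of the secondary pulse compared with the same well before compound.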

In this experiment the target is human ether-à-go-go-related gene (hERG) potassium channel (human, UniProt Q12809). Nature of the experiment: primary screen, population patch clamp on CHO cells stably expressing hERG.
human ether-à-go-go-related gene (hERG) potassium channel, sequence (Q12809 whole entry, looked up): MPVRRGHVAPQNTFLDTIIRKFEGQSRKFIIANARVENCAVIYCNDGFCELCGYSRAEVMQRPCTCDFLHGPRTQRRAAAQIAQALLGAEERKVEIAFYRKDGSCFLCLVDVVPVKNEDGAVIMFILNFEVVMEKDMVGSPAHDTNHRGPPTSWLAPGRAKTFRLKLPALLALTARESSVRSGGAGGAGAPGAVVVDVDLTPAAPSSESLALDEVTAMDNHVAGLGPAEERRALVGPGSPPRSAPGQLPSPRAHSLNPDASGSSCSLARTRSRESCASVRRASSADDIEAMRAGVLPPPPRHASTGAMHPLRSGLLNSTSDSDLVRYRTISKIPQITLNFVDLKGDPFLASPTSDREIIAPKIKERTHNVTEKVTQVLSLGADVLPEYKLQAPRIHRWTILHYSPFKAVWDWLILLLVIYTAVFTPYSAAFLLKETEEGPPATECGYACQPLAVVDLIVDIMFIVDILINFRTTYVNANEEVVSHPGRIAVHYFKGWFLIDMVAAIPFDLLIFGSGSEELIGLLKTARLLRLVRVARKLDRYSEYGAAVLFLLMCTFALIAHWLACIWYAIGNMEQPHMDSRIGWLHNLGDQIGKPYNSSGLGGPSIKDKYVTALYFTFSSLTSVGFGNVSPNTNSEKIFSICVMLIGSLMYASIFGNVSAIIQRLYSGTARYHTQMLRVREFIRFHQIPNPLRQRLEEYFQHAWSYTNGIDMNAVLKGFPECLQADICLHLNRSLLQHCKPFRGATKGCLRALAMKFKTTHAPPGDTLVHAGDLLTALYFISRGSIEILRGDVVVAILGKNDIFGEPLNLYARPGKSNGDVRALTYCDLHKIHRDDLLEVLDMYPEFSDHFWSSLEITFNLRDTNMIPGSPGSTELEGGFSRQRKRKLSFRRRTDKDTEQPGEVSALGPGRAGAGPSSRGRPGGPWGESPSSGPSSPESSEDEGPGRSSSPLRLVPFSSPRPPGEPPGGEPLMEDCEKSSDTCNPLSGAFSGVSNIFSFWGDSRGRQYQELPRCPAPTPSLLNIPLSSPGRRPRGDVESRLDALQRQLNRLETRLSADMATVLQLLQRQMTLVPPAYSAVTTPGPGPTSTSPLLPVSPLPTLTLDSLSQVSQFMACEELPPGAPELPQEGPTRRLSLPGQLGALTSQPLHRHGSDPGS
Take `COc1ccc(NC(=O)CN(c2ccccc2)S(=O)(=O)c2ccccc2)c(OC)c1`: the “hERG current change (%, negative = inhibition) at 10uM” value is recorded as -19.3%.
Then `COc1ccc(C(=O)N2N=C(c3cccc(NS(C)(=O)=O)c3)CC2c2cccs2)cc1` (stereo not drawn), with -30.6%; and `CCc1ccccc1NC(=O)c1ccc(NS(C)(=O)=O)cc1`, with -42.1%; and `CCOC(=O)C1CCN(C(=O)CCCn2nc(C)c3c(C)n(-c4ccc(C)cc4)nc3c2=O)CC1`, with -25.9%.
Consider `CCOc1ccccc1N(C)C(=O)CCS(=O)(=O)c1ccc2c(c1)NC(=O)C(C)S2` (stereo not drawn), for which the “hERG current change (%, negative = inhibition) at 10uM” value is reported as 3.85%.
Next, `CN(C)CCNC(=O)c1cc2c(s1)-c1ccc(Cl)cc1SC2`: -81.1%; `C=CCn1c(=O)c2ccccc2n2c(SCc3csc(-c4ccccc4)n3)nnc12`: -16.4%.
On to `Cc1ccc(Cl)cc1NC(=O)c1cccc(OC(F)F)c1`, for which the “hERG current change (%, negative = inhibition) at 10uM” value was -12.3%.
For `CC(=O)c1ccc(NC(=O)c2ccc(CNc3c(N4CCOCC4)c(=O)c3=O)cc2)cc1`, the “hERG current change (%, negative = inhibition) at 10uM” value is recorded as -0.262%.
Then `COCC1CCN(Cc2cn[nH]c2-c2cc(OC)c(OC)c(OC)c2)CC1`, with -38.1%; and `O=C(O)c1cc([N+](=O)[O-])c(NCCC2=CCCCC2)c([N+](=O)[O-])c1`, with 28.6%.
Then `CCOc1ccc(N(CC(=O)Nc2ccc(C)c(Cl)c2)S(C)(=O)=O)cc1`, with 2.01%; and `CC(=NCCCN1CCOCC1)c1c(O)n(-c2ccccc2C)c(=O)[nH]c1=O`, with 17.9%; and `CS(=O)(=O)N(CC(=O)N/N=C/c1ccc(OCC(=O)N2CCOCC2)cc1)c1ccccc1Cl`, with 7.12%.
Then `CC(C)OC(=O)c1cccc(C(=O)Oc2ccc(Br)cc2)n1`, with -2.27%; and `CC(C)SCc1cc(N2CCCC2)nc(-c2ccccc2)n1`, with 11%; and `CCc1ccc2oc(C(=O)N3CCN(C)CC3)cc(=O)c2c1`, with -32.4%.
As to `CC(C)NC(=O)Cn1cc(C#N)c2cc(Br)ccc21`, the “hERG current change (%, negative = inhibition) at 10uM” value turned out to be 2.76%.
As for `CC1=C/C(=C\C=C(C#N)C#N)N(C)c2ccccc21`, the “hERG current change (%, negative = inhibition) at 10uM” value was determined as 9.34%.
For `CCSc1nccc(-c2nn(-c3ccc(C)cc3)ccc2=O)n1`, the “hERG current change (%, negative = inhibition) at 10uM” value was -33.6%.
Then `CCCCN(CC)C(=O)CSc1cc(=O)n(C)c2ccccc12`, with -10.4%; and `CCN(CC)C(=S)SCC(=O)Nc1cccc(C(F)(F)F)c1`, with -10%.
Turning to `Cc1ccc(CS/C(Nc2ccccc2C)=C(\C#N)C(=O)NCc2ccco2)c(C)c1`, the “hERG current change (%, negative = inhibition) at 10uM” value is on record as 9.03%.
For `CCn1c2ccccc2c2cc(NC(=O)COC(=O)C3CCC(=O)N3)ccc21` (stereo not drawn), the “hERG current change (%, negative = inhibition) at 10uM” value is listed as 3.79%.
Turning to `COc1ccc(CCNc2nc3ccccc3n3cnnc23)cc1OC`, the “hERG current change (%, negative = inhibition) at 10uM” value stood at 10%.
Then `CCOC(=O)N1CCN(C(=O)C2CCN(S(=O)(=O)c3ccccc3)CC2)CC1`, with -17.4%; and `O=C(CCc1nnc2n(Cc3ccc(F)cc3)c(=O)c3ccccc3n12)NCCN1CCOCC1`, with -20.3%; and `C/C(=N\NC(=O)c1cccc([N+](=O)[O-])c1)c1cccnc1`, with 0.782%.
Regarding `CCCCCCSc1ccc([C@H]2N[C@@](Cc3ccccc3)(C(=O)OC)[C@H]3C(=O)N(CC)C(=O)[C@@H]23)cc1.O=C(O)C(F)(F)F`, the “hERG current change (%, negative = inhibition) at 10uM” value is recorded as -0.79%.
Then `Cc1ccccc1OCC(=O)N1CCN(C(=O)COc2ccccc2C)CC1`, with 4.74%; and `Nc1nc(NC(=O)CCC(=O)O)nn1-c1ccccc1`, with 9.86%.
Next, `CCn1nnc2cc(C(=O)Nc3cccc(S(=O)(=O)N(C)C)c3)ccc21`: -20.3%.
Then `CCOC(=O)Nc1ccc(S(=O)(=O)NC2CCCCC2)cc1`, with 9.96%.
As to `COc1cccc(CN(C)C(=O)Cc2ccc(OC)c(S(=O)(=O)N3CCOCC3)c2)c1`, the “hERG current change (%, negative = inhibition) at 10uM” value was -4.35%.
Then `O=C(CN1CCN(c2ccccc2)CC1)Nc1nccs1`, with 5.11%; and `CC(=O)NNC(=O)CC(=O)Nc1nc(C23CC4CC(CC(C4)C2)C3)cs1`, with 31.4%; and `CC(=O)Nc1cccc(Oc2ncnc3scc(-c4ccccc4)c23)c1`, with -4.72%.
Consider `Cc1ccc2c(c1)c1ncn(CCC3=CCCCC3)c(=O)c1n2C`, for which the “hERG current change (%, negative = inhibition) at 10uM” value is recorded as 9.5%.
On to `CC(=O)N(C)c1ccc(NC(=O)Nc2ccccc2C)cc1`, for which the “hERG current change (%, negative = inhibition) at 10uM” value was determined as 20.1%.
As for `O=C(Nc1nnc(SCc2ccccc2)s1)c1cc2c(s1)CCCC2`, the “hERG current change (%, negative = inhibition) at 10uM” value amounted to 2.66%.
Next, `Cc1ccc(F)c(CNC(=O)C2CCC(=O)N(CCN3CCOCC3)C2)c1F` (stereo not drawn): 12%.
`O=C(NCCc1csc(-c2ccccc2)n1)c1cccs1`: the “hERG current change (%, negative = inhibition) at 10uM” value was -18.4%.
